Assay results taken from PMC12093142.
Results are given in words; binding and its absence hold for the method and conditions named. In cells and extracts the contact can be indirect. Some entries that bind do so weakly or less than the wild type. For part of these data: Tags and fused reporters may be left off the sequences shown.

Protein sequences, listed by entry. Tags and fused reporters are not part of them.
UniProt Q9HAU5: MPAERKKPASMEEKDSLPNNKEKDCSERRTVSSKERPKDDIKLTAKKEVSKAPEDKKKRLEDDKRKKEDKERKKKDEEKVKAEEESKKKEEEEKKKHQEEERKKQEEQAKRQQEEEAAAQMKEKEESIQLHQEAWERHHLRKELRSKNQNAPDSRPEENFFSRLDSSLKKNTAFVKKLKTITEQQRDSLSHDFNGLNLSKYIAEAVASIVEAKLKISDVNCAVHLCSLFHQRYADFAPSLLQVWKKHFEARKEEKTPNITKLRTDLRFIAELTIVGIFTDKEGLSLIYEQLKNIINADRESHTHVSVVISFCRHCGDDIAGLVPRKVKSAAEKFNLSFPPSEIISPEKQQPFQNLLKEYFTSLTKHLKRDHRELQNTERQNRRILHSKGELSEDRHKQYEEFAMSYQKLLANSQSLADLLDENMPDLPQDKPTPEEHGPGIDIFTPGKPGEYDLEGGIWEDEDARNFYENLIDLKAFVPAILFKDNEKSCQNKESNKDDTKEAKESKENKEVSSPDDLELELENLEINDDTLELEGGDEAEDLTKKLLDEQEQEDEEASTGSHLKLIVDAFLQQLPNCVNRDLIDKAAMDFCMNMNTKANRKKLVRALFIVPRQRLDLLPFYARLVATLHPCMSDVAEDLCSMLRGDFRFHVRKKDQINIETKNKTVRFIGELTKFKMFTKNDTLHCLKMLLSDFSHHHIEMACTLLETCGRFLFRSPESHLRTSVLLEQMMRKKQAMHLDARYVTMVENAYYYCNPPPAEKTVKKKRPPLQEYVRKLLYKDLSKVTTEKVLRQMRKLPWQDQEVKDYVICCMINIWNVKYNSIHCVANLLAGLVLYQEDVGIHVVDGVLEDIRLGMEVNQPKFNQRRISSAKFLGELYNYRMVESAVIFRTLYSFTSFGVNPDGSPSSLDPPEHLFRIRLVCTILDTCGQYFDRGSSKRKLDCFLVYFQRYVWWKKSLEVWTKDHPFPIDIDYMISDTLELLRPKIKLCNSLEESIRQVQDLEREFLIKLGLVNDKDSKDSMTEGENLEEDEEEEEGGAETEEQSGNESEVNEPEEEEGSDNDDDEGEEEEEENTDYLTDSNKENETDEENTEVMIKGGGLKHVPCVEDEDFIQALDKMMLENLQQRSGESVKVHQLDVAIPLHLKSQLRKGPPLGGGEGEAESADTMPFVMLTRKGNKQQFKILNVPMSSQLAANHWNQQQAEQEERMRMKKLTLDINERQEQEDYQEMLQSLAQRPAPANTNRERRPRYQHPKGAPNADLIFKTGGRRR
UniProt P63241: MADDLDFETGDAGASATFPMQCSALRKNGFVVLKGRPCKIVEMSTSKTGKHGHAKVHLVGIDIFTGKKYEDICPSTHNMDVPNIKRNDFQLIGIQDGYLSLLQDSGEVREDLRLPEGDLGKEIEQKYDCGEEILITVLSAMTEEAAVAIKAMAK
UniProt O14980: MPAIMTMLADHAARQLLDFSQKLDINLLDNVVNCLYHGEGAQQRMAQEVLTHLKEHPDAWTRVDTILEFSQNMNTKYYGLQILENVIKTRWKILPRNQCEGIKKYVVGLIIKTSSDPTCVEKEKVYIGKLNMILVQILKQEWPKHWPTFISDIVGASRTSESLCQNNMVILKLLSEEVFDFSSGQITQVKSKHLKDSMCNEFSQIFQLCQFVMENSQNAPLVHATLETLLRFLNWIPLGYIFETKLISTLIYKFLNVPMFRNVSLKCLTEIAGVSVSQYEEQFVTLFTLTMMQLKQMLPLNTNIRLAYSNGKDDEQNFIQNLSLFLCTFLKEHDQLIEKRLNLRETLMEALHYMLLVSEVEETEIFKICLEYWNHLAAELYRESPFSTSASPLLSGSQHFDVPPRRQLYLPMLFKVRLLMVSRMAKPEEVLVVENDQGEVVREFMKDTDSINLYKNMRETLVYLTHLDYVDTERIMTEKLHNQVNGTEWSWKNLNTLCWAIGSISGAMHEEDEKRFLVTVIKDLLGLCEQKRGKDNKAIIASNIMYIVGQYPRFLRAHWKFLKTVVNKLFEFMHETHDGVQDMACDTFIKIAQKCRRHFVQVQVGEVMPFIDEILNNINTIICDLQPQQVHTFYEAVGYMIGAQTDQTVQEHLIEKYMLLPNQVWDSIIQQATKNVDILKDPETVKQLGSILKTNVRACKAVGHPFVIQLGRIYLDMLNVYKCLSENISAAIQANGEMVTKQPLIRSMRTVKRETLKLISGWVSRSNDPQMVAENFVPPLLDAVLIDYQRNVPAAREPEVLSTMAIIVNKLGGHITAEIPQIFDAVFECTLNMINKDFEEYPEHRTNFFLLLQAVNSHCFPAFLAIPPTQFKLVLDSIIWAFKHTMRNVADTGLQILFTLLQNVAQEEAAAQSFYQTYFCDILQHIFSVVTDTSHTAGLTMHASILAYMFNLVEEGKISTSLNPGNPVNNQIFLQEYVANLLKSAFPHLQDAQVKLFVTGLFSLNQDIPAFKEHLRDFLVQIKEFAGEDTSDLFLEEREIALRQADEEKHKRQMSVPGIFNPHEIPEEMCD

T1: RNA helicase UPF1 (endogenous) (human (endogenous in 293T, Jurkat, C8166, C91PL, HUT102)) (UniProt Q92900)
T1 sequence: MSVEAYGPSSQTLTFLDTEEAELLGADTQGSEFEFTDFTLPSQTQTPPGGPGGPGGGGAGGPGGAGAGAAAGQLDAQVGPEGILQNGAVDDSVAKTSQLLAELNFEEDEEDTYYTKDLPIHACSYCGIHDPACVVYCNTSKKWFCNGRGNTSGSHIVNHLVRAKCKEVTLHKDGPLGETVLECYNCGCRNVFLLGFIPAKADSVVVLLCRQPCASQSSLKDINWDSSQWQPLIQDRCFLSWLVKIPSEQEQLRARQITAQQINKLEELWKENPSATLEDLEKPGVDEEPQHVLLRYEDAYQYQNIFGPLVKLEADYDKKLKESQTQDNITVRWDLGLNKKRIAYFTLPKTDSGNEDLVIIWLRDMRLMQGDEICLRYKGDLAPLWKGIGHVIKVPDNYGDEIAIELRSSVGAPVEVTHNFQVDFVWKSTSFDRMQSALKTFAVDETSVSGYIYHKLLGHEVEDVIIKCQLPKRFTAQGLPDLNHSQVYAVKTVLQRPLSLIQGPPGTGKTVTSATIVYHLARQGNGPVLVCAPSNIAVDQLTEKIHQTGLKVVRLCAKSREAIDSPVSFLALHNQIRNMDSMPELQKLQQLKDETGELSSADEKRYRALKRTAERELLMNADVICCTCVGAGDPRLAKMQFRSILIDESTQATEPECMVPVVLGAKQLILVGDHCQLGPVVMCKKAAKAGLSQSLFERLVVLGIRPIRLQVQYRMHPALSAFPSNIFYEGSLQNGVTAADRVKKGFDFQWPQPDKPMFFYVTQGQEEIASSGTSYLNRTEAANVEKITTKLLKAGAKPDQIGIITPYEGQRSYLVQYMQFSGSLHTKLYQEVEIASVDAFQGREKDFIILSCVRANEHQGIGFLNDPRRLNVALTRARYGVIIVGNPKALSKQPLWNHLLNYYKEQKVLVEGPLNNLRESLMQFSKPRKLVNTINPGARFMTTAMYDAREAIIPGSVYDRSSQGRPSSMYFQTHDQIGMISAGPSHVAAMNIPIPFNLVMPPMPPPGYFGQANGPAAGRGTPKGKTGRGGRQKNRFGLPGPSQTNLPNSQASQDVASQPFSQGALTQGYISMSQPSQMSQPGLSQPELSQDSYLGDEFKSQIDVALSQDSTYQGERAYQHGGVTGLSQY

T2: HTLV-1 Rex (Rex WT, without tag) (HTLV-1) (UniProt P0C205)
T2 sequence: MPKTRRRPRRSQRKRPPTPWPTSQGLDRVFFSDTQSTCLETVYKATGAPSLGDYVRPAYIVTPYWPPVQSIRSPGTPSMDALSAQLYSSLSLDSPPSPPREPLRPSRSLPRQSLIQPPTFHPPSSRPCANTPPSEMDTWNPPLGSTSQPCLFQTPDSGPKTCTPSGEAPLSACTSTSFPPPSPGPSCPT

T3: HA-UPF1 (UniProt Q92900)
T3 sequence: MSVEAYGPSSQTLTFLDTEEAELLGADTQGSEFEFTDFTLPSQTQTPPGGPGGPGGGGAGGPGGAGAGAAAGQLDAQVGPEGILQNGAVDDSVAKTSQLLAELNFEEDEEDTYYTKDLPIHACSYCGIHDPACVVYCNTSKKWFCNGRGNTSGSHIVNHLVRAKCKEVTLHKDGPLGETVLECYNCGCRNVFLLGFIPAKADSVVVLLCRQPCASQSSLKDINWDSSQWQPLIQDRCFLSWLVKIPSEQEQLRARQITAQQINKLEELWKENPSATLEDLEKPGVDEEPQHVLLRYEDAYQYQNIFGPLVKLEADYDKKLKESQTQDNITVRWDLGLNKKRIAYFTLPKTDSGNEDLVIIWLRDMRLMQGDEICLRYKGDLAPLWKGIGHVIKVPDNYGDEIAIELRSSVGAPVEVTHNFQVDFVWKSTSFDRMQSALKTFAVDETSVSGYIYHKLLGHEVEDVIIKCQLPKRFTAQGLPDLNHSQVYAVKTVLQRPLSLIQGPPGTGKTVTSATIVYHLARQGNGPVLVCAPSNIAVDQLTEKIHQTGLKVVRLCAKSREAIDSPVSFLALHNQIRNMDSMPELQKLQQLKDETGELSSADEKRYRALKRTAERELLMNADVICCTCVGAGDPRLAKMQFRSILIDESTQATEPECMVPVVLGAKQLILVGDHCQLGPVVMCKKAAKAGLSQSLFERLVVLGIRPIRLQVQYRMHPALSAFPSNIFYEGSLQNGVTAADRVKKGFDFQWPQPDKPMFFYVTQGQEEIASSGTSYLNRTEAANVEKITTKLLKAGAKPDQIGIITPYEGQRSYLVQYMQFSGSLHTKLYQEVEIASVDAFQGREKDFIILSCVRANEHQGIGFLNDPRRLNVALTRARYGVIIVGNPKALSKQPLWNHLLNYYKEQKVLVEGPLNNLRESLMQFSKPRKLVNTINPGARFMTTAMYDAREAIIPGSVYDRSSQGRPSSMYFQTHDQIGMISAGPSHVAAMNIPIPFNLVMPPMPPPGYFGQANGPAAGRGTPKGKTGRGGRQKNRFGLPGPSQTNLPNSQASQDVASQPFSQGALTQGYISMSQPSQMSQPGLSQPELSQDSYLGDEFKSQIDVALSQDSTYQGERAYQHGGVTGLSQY

T4: FTSJ1 (ribosomal RNA methyltransferase 1) (human (endogenous in 293T)) (UniProt Q9UET6)
T4 sequence: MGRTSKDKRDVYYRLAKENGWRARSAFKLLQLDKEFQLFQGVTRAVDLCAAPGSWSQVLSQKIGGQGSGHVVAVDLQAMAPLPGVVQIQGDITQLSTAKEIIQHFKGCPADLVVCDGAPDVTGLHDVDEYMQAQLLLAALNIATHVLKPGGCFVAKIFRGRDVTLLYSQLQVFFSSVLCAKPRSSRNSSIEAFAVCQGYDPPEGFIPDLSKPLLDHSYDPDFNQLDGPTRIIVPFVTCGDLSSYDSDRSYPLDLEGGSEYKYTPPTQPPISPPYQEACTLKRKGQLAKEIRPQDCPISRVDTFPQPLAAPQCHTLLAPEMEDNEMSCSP


How the values were obtained:
[1] = target: T1, RNA helicase UPF1 (endogenous) (human (endogenous in 293T, Jurkat, C8166, C91PL, HUT102)); assay: co-IP; 293T extracts, cells expressing Rex (WT, NES or NLS mutant) with or without an RxRE containing RNA; IP with rabbit polyclonal anti-UPF1; with or without RNAse A (0.1 mg/ml, 30 min); western blot
[2] = target: T2, HTLV-1 Rex (Rex WT, without tag) (HTLV-1); assay: co-IP; 293T extracts, cells expressing combinations of Rex and an RxRE containing RNA; IP with an antibody targeting Rex; western blot
[3] = target: T1, RNA helicase UPF1 (endogenous) (human (endogenous in 293T, Jurkat, C8166, C91PL, HUT102)); assay: co-IP; extracts of lymphocytes (Jurkat, C8166, C91PL, HUT102); IP with rabbit polyclonal anti-UPF1; western blot
HA-UPF1 = target: T3, HA-UPF1; assay: proximity ligation; HeLa cells transiently transfected with HA-UPF1 with or without Rex; anti-HA combined with anti-CRM1 (endogenous CRM1)
[4] = target: UPF2 (endogenous) (human (endogenous in C91PL)) (UniProt Q9HAU5); assay: co-IP; C91PL cell extracts; IP with UPF2 antibody or a control antibody; western blot
[5] = target: eIF5A (human (endogenous in 293T)) (UniProt P63241); assay: proximity ligation; 293T cells transiently transfected with HA-Rex; anti-HA combined with anti-UPF1, anti-FTSJ1 or anti-eIF5A; 40 nm resolution
[6] = target: T4, FTSJ1 (ribosomal RNA methyltransferase 1) (human (endogenous in 293T)); assay: as above
[7] = target: T1, RNA helicase UPF1 (endogenous) (human (endogenous in 293T, Jurkat, C8166, C91PL, HUT102)); assay: as above
[8] = target: exportin CRM1 (XPO1), endogenous (human (endogenous in 293T, HeLa, Jurkat, C8166, C91PL, HUT102)) (UniProt O14980); assay: co-IP; 293T extracts, cells expressing combinations of Rex and an RxRE containing RNA; IP with rabbit polyclonal anti-CRM1 or pre-immune serum; lysis buffer 50 mM Tris-Cl pH 8, 1% Triton, 200 mM KCl, 0.1 mM GTP; western blot

Molecule | binding [1] | binding [3] | binding [4] | further results
exportin CRM1 (XPO1), endogenous (from UniProt O14980 1-1071) | binds | binds | binds | binding [2]: binds; binding (HA-UPF1): binds
HA-Rex (protein, UniProt P0C205 1-189) MPKTRRRPRRSQRKRPPTPWPTSQGLDRVFFSDTQSTCLETVYKATGAPSLGDYVRPAYIVTPYWPPVQSIRSPGTPSMDALSAQLYSSLSLDSPPSPPREPLRPSRSLPRQSLIQPPTFHPPSSRPCANTPPSEMDTWNPPLGSTSQPCLFQTPDSGPKTCTPSGEAPLSACTSTSFPPPSPGPSCPT |  |  |  | binding [5]: binds; binding [6]: no binding; binding [7]: binds
HTLV-1 Rex (Rex WT, without tag) (protein, UniProt P0C205 1-189) MPKTRRRPRRSQRKRPPTPWPTSQGLDRVFFSDTQSTCLETVYKATGAPSLGDYVRPAYIVTPYWPPVQSIRSPGTPSMDALSAQLYSSLSLDSPPSPPREPLRPSRSLPRQSLIQPPTFHPPSSRPCANTPPSEMDTWNPPLGSTSQPCLFQTPDSGPKTCTPSGEAPLSACTSTSFPPPSPGPSCPT | binds |  |  | binding [8]: binds
HTLV-1 Rex expressed in chronically infected T cell lines (protein, UniProt P0C205 1-189) MPKTRRRPRRSQRKRPPTPWPTSQGLDRVFFSDTQSTCLETVYKATGAPSLGDYVRPAYIVTPYWPPVQSIRSPGTPSMDALSAQLYSSLSLDSPPSPPREPLRPSRSLPRQSLIQPPTFHPPSSRPCANTPPSEMDTWNPPLGSTSQPCLFQTPDSGPKTCTPSGEAPLSACTSTSFPPPSPGPSCPT |  | binds | no binding | 
